# Variants at the background level are over-represented here.
# B1: tRNA (parent)
# chain: CUCUCGGUAGCCAAGUUGGUUUAAGGCGCAAGACUUUAAUUUAUCACUACGAAAUCUUGAGAUCGGGCGUUCGACUCGCCCCCGGGAGAUUUUUUCCUCGAGCAA
# Variants of: B1
# Experiment: nonsense suppression (GFP-seq) (ratio to wild type); higher = more function; SUP4oc tRNA, yeast GFP reporter sort-seq
# Method in brief: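 Raffinose/galactose medium with 80 mg/L adenine was used to grow yeast carrying genome-integrated tRNA variants (~3% random-mutation library), RFP, and a galactose-driven GFP ochre reporter. Cells went into GFP/RFP bins, which were Illumina-sequenced, and variants with ≥100 reads and ≥30 cells were scored. Nonsense suppression (GFPSEQ) is the per-bin median GFP/RFP weighted by estimated cell share and expressed relative to the unmutated parent tRNA.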
row,Variant,nonsense suppression
1,A31G C56U A60U G69U,≤ 0.026
2,A31G C68G,≤ 0.026
3,A31G C72A G73A,≤ 0.026
4,A31G C72G,≤ 0.026
5,A31G C75U,1.05
6,A31G C77U,≤ 0.026
7,A31G C80G G85U,≤ 0.026
8,A31G C81A G86U,≤ 0.026
9,A31G C83U,0.0743
10,A31G G32A,≤ 0.026
11,A31G G32C,≤ 0.026
12,A31G G32C A54C,≤ 0.026
13,A31G G32C G88U,≤ 0.026
14,A31G G61A G67U,≤ 0.026
15,A31G G61A G78U C83U,≤ 0.026
16,A31G G61U U76A,≤ 0.026
17,A31G G65A G88U,≤ 0.026
18,A31G G65C,≤ 0.026
19,A31G G66A U70G G73C,≤ 0.026
20,A31G G67C C68G,≤ 0.026
21,A31G G67C G85A,≤ 0.026
22,A31G G67C U76A,≤ 0.026
23,A31G G67U U76G,≤ 0.026
24,A31G G67U U76G C81A,≤ 0.026

row,Variant,nonsense suppression
1,A31G G69A,≤ 0.026
2,A31G G69C G84C A87C,≤ 0.026
3,A31G G69U,≤ 0.026
4,A31G G73A,0.366
5,A31G G78C,≤ 0.026
6,A31G G78U,≤ 0.026
7,A31G G84A,≤ 0.026
8,A31G G86A,≤ 0.026
9,A31G G86U,≤ 0.026
10,A31G G88U,≤ 0.026
11,A31G U35G G88U,≤ 0.026
12,A31G U35G U70G,≤ 0.026
13,A31G U57A,0.136
14,A31G U57C G78A G86A,≤ 0.026
15,A31G U58G C64U C68G,≤ 0.026
16,A31G U63C C72A,≤ 0.026
17,A31G U63G G66A C82A,≤ 0.026
18,A31G U70A,≤ 0.026
19,A31G U71G,≤ 0.026
20,A31U A33G,≤ 0.026
21,A31U A54C U57C,≤ 0.026
22,A31U A60C C72U U76C C79G,≤ 0.026
23,A31U A60C C75A,0.184
24,A31U A60C G61A U63G G85C,≤ 0.026

row,Variant,nonsense suppression
1,A31U A62C C68G,≤ 0.026
2,A31U C34G U57A A62G,≤ 0.026
3,A31U C34G U71A,≤ 0.026
4,A31U C34U U76C,≤ 0.026
5,A31U C56A,≤ 0.026
6,A31U C56A U70C A89G,≤ 0.026
7,A31U C56U C83G,≤ 0.026
8,A31U C64U C72U,≤ 0.026
9,A31U C64U U76C,≤ 0.026
10,A31U C68A,≤ 0.026
11,A31U C68U,≤ 0.026
12,A31U C68U U70A G85U,≤ 0.026
13,A31U C72G,≤ 0.026
14,A31U C75A,0.758
15,A31U C77G,≤ 0.026
16,A31U C80A,≤ 0.026
17,A31U C80G,≤ 0.026
18,A31U C81U,0.0322
19,A31U G32C G85U,≤ 0.026
20,A31U G59A,≤ 0.026
21,A31U G65A G69A C75G G84U,≤ 0.026
22,A31U G65C C72G U76G,≤ 0.026
23,A31U G66C G78C,≤ 0.026
24,A31U G66U,≤ 0.026

row,Variant,nonsense suppression
1,A31U G67C,≤ 0.026
2,A31U G69A,≤ 0.026
3,A31U G73A C79G,≤ 0.026
4,A31U G73C,≤ 0.026
5,A31U G78U C80A,≤ 0.026
6,A31U G84A,≤ 0.026
7,A31U G84C,≤ 0.026
8,A31U G85C,≤ 0.026
9,A31U G88C,≤ 0.026
10,A31U U55A G85C,≤ 0.026
11,A31U U55G,≤ 0.026
12,A31U U55G G67C,≤ 0.026
13,A31U U57G C64U G69C G85C,≤ 0.026
14,A31U U58C U63A G73A,≤ 0.026
15,A31U U58G A62U G65U A74U,≤ 0.026
16,A31U U58G G69A,≤ 0.026
17,A31U U58G G86A,≤ 0.026
18,A31U U63A,0.0391
19,A31U U63A G85C A89C,≤ 0.026
20,A31U U63G,0.0763
21,A31U U63G G65A G69A C75A,≤ 0.026
22,A31U U63G G66U,≤ 0.026
23,A31U U70A,≤ 0.026
24,A31U U70A U71A,≤ 0.026

row,Variant,nonsense suppression
1,A31U U71A,≤ 0.026
2,G32A A33G G86C,≤ 0.026
3,G32A A54U,≤ 0.026
4,G32A A54U G59C,≤ 0.026
5,G32A A60U,≤ 0.026
6,G32A A60U C77G,≤ 0.026
7,G32A A62U C83A,≤ 0.026
8,G32A A74C,≤ 0.026
9,G32A C56A G78A G85U,≤ 0.026
10,G32A C64G,≤ 0.026
11,G32A C77A,≤ 0.026
12,G32A C83A,≤ 0.026
13,G32A G59C C75A,≤ 0.026
14,G32A G61A G69U,≤ 0.026
15,G32A G61C C81U C82A,≤ 0.026
16,G32A G61C G67U C72G,≤ 0.026
17,G32A G65A C81G,≤ 0.026
18,G32A G78C,≤ 0.026
19,G32A U35A G59U G73A G85C,≤ 0.026
20,G32A U35A U57A,≤ 0.026
21,G32A U57A G61U,≤ 0.026
22,G32A U57C,≤ 0.026
23,G32A U57C U58C C68G,≤ 0.026
24,G32A U57G G73A,≤ 0.026

row,Variant,nonsense suppression
1,G32A U63A,≤ 0.026
2,G32A U70A C72A,≤ 0.026
3,G32A U70C,≤ 0.026
4,G32A U71G,≤ 0.026
5,G32A U76C C82G,≤ 0.026
6,G32C A54G G86A,≤ 0.026
7,G32C A60C C82U,≤ 0.026
8,G32C A60G,≤ 0.026
9,G32C A60G G65C,≤ 0.026
10,G32C A62G C82A,≤ 0.026
11,G32C A62U G65C C80A G88A,≤ 0.026
12,G32C A74G,≤ 0.026
13,G32C A89U,≤ 0.026
14,G32C C34A A62U G69C G88A,≤ 0.026
15,G32C C34G U35C,≤ 0.026
16,G32C C34U,≤ 0.026
17,G32C C56A A60G C83U G85C,≤ 0.026
18,G32C C56A A87U,≤ 0.026
19,G32C C72U,≤ 0.026
20,G32C C75A G86U,≤ 0.026
21,G32C C77A G85U,≤ 0.026
22,G32C C79U G88U,≤ 0.026
23,G32C G65A,≤ 0.026
24,G32C G65C,≤ 0.026

row,Variant,nonsense suppression
1,G32C G66A,≤ 0.026
2,G32C G69A C77G G78A,≤ 0.026
3,G32C G84A,≤ 0.026
4,G32C G86A,≤ 0.026
5,G32C G88A,≤ 0.026
6,G32C U55A C83U,≤ 0.026
7,G32C U55A G61C A89C,≤ 0.026
8,G32C U55G C77G C79A,≤ 0.026
9,G32C U58C G59A,≤ 0.026
10,G32C U63A C83U A89C,≤ 0.026
11,G32C U63C C81A,≤ 0.026
12,G32C U70C U71G,≤ 0.026
13,G32C U76A,≤ 0.026
14,G32C U76A G85C,≤ 0.026
15,G32U A33G,≤ 0.026
16,G32U A33G U55C C79U,≤ 0.026
17,G32U A54U C64U U76C,≤ 0.026
18,G32U A60G,≤ 0.026
19,G32U A60U,≤ 0.026
20,G32U A62G U63A,≤ 0.026
21,G32U C34A,≤ 0.026
22,G32U C79A,≤ 0.026
23,G32U C81U,≤ 0.026
